The full ranking holds about 13,000 compounds; the median of “IFI” is about 4, and the highest 2% start at about 17. Some of the results follow.
test: GSK_TCMDC: Inhibition Frequency Index (IFI). The number of non-kinase HTS assays where a compound showed > 50 % inhibition, expressed as a percentage of the number of such assays in which the compound was tested (-0 is zero); type: functional

SMILES | IFI [%]
O=C(/C=C/c1ccc(Cl)c(Cl)c1)NCCCCCCN1CCN(C(=O)Nc2ccc(C(F)(F)F)cc2)CC1 | 7.03
CC(C)COc1ccc(Cl)cc1Cc1nc(-c2nc3ccc(CN4CCN(C)CC4)cc3[nH]2)co1 | 5.81
CC(=O)N/N=C/[C@H](CCc1ccccc1)NC(=O)[C@H](CC(C)C)NC(=O)c1ccc(F)cc1 | 5.5
CN(C)Cc1ccc(CN2CCN(CCOc3ccc(-c4ccc(Cl)cc4)cc3)CC2)o1 | 13.2
COc1cc(NC(=O)/C=C/c2cc(F)cc(F)c2F)cc(OCCN2CCC3(CC2)OCCO3)c1 | 1.46
O=C(/C=C/c1ccc(Cl)c(Cl)c1)NCCCCCN1CCCN(C(=O)Nc2ccc(OC(F)F)cc2)CC1 | 6.71
CCCC(=O)NC(c1ccc(C(C)C)cc1)c1ccc2cccnc2c1O (centres undefined) | 5.11
O=C(/C=C/c1ccc(C(F)(F)F)cc1)N1CCc2cc3nccc(N4CCN5CCC[C@H]5C4)c3cc21 | 0.74
N=C(N)c1ccc(OCCCCCOc2ccc(C(=N)N)cc2)cc1 | 2.34
CCOC(=O)c1cn(CC)c2cc(N3CCCCC3)c(F)cc2c1=O | -0
COc1ccccc1NC(=O)CSc1nc2cccnc2n1-c1ccccc1OC | 1.43
COc1ccc(CCNC(=O)c2cnc3c(c2)nc(-c2c[nH]c(-c4ccccc4)n2)n3CCc2c[nH]cn2)cc1 | 1.49
Cc1cc(Nc2c(C(N)=O)cnc3cc(-c4ccoc4)ccc23)ccc1N1CCN(C)CC1 | 2.8
O=C(c1ccc(-c2cnc3[nH]cc(-c4ccc(C(=O)N5CCOCC5)cc4)c3c2)cc1)N1CCOCC1 | 0
O=C(Nc1cc(Oc2ccc(O)cc2)cc([N+](=O)[O-])c1)c1cc(-c2ccc(F)cc2)no1 | 6.38
CCCc1cnc2nc(N)nc(N)c2c1C | 2.17
CCN(CC)CCNC(=O)c1ccc(N/C=C2\C(=O)Nc3ccc(S(=O)(=O)Cc4c(Cl)cccc4Cl)cc32)cc1 | 8.33
Cc1ccc(Nc2nccc(NCC(O)c3ccc(C(F)(F)F)cc3)n2)cc1 (centres undefined) | 9.18
Cc1nc2cc(/C=C/C(=O)NC3CCC(CCN4CCc5ccc(C#N)cc5CC4)CC3)ccc2[nH]1 (centres undefined) | 0.76
O=C(Cn1c(CCc2cccc(F)c2F)cc(=O)c2cccnc21)N(CCn1ccnc1)Cc1ccc(-c2ccc(C(F)(F)F)cc2)cc1 | 0.72
O=C(NCc1ccco1)c1ccc(S(=O)(=O)c2ccc(Cl)cc2)cc1 | 0.9
CCCCOc1c(CCNCCCCNCCc2cc(OC)c3ccccc3c2OCCCC)cc(OC)c2ccccc12 | 15
O=C(Nc1ccccc1)N(Cc1cccc(-c2cccc(CNCCc3ccccc3)c2)c1)C1CCN(Cc2ccccc2)CC1 | 12.3
CCOc1cc(Br)c(C(C)NC(=O)c2ccccc2)cc1OCC (centres undefined) | 0

Source: ChEMBL document CHEMBL1157539, “Thousands of chemical starting points for antimalarial lead identification” (Nature, 2010)
